The text below walks through data of the supplement of paper PMC9446081.

SMILES strings stand for the structures. Among all 39,000 compounds or so, about 220 (0.56%) showed activity. The list shows a part of the results.
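Also: static incubation at 37 °C against the wild-type strain, values averaged over two biological replicates.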

The test deals with Escherichia coli K-12 BW25113. The experiment in a line: relative growth (OD600 normalised to plate interquartile mean) (fraction); higher = less growth inhibition, active = 0.2 or less. The conditions noted are these: 50 µM; LB; incubation time: overnight (16-24 h).
In the case of `COc1ccc(NC(=O)N(C)C[C@H]2OCCCC[C@@H](C)Oc3ccc(NS(=O)(=O)c4ccc(Cl)cc4)cc3C(=O)N([C@H](C)CO)C[C@H]2C)cc1`, the relative growth was inactive: 1. Take `COc1ccc(NC(=O)N(C)C[C@H]2Oc3ncc(C#CCN(C)C)cc3C(=O)N([C@H](C)CO)C[C@@H]2C)cc1`: the relative growth was inactive: 0.978. Regarding `COCC(=O)Nc1ccc2c(c1)OC[C@@H](C)N(C(=O)Nc1ccccc1F)C[C@@H](C)[C@H](OC)CN(C)C2=O`, the relative growth was inactive: 1.02. The same measure for `C[C@@H]1CN([C@H](C)CO)C(=O)c2cccc(NC(=O)c3ccc(-c4nccs4)cc3)c2O[C@H]1CN(C)Cc1ccc(C(F)(F)F)cc1`: inactive: 1; for `C[C@@H]1CN([C@H](C)CO)C(=O)Cc2cc(NC(=O)Cn3cnnn3)ccc2O[C@H]1CN(C)S(=O)(=O)c1ccc(F)cc1`: inactive: 1.01; for `COCC(=O)Nc1ccc2c(c1)OC[C@@H](C)N(C(=O)c1ccccc1F)C[C@H](C)[C@H](OC)CN(C)C2=O`: inactive: 0.969. For the compound `CC(C)c1cn(CC[C@@H]2CC[C@H](N)[C@@H](CO)O2)nn1`, the relative growth was inactive: 0.994. For the compound `CO[C@@H](C(=O)N(C)C[C@H]1OCc2ccccc2-c2c(n(C)c3ccccc23)C(=O)N([C@H](C)CO)C[C@H]1C)c1ccccc1`, the relative growth is inactive: 1.01. For `CC(=O)Nc1nnc2n1CCS2` the value was inactive: 1.02; for `CCCNC(=O)[C@H]1[C@H](CO)[C@H]2Cn3c(ccc(-c4ccccc4OC)c3=O)[C@H]2N1S(C)(=O)=O`, inactive: 1.01. As to `COc1ccc(S(=O)(=O)N(C)C[C@H]2Oc3ccc(NC(=O)CCN4CCOCC4)cc3C(=O)N([C@@H](C)CO)C[C@@H]2C)cc1`, the relative growth was inactive: 0.996. The same measure for `C[C@H](CO)N1C[C@H](C)[C@@H](CN(C)C(=O)Nc2cccc3ccccc23)Oc2ccc(NC(=O)Nc3ccc(F)cc3)cc2CC1=O`: inactive: 0.997; for `CCc1cc(C(N)=O)c(N)s1`: inactive: 0.979; for `C[C@H]1CN([C@@H](C)CO)C(=O)c2cccc(NC(=O)Nc3ccc(C(F)(F)F)cc3)c2O[C@@H]1CN(C)Cc1ccc(C(F)(F)F)cc1`: inactive: 0.91. Consider `CN1C(=O)c2cc(NC(=O)C3CCCC3)ccc2OC[C@H]2O[C@H](CC(=O)NCCc3ccncc3)CC[C@H]21`, for which the relative growth was inactive: 0.985. For `O=C(C[C@@H]1CC[C@@H](NC(=O)c2cnccn2)[C@@H](CO)O1)NCc1ccccc1F` the value was inactive: 1.05. For `CS(=O)(=O)NC[C@@]12COC[C@H]1CN(C(=O)COC1CCCC1)C2` the value was inactive: 0.984; for `COc1ccc(CN(C)C[C@@H]2OCCCC[C@@H](C)Oc3ccc(NS(=O)(=O)c4ccccc4)cc3C(=O)N([C@H](C)CO)C[C@H]2C)cc1`, inactive: 1.03.

For `C[C@@H]1CCCCO[C@H](CN(C)S(=O)(=O)c2ccc(Cl)cc2)[C@@H](C)CN([C@H](C)CO)C(=O)c2cc(NC(=O)CCC(F)(F)F)ccc2O1`, the relative growth was inactive: 1.02. With `C[C@H]1CCCCO[C@H](CN(C)C(=O)Nc2ccc(C(F)(F)F)cc2)[C@@H](C)CN([C@@H](C)CO)C(=O)c2cc(NC(=O)NC3CCCCC3)ccc2O1`, the relative growth was inactive: 1.01. For `O=C(C[C@@H]1C[C@@H]2c3cc(NC(=O)C4CCOCC4)ccc3O[C@@H]2[C@H](CO)O1)NCc1cc(F)ccc1F`, the relative growth was inactive: 0.955. For `CN1C(=O)[C@@H]2[C@H](N=CN2CCCO)N(C)C1=O`, the relative growth is inactive: 0.982. For `CCCNC(=O)N1C[C@@H](O)COC[C@@H]2O[C@H](CC(=O)N3CCN(C)CC3)CC[C@H]21` the value was inactive: 1.01; for `C[C@@H]1CN([C@H](C)CO)C(=O)Cc2cc(NC(=O)C3CC3)ccc2O[C@H]1CN(C)Cc1ccc(C(=O)O)cc1`, inactive: 0.972. For `C[C@@H]1CN([C@@H](C)CO)C(=O)c2cccc(NS(=O)(=O)c3cccs3)c2O[C@H]1CN(C)S(=O)(=O)c1ccccc1` the value was inactive: 0.991; for `C[C@@H]1CCCCO[C@H](CN(C)S(=O)(=O)c2ccc(F)cc2)[C@H](C)CN([C@H](C)CO)C(=O)c2cc(NC(=O)Nc3ccc(F)cc3)ccc2O1`, inactive: 1; for `C[C@H](CO)N1C[C@H](C)[C@H](CN(C)S(=O)(=O)c2cn(C)cn2)Oc2ccc(NC(=O)C3CCCCC3)cc2CC1=O`, inactive: 0.989.

On to `C[C@@H]1CCCCO[C@H](CN(C)C(=O)Nc2ccccc2)[C@H](C)CN([C@@H](C)CO)C(=O)c2cc(NC(=O)Nc3ccc(C(F)(F)F)cc3)ccc2O1`, for which the relative growth was inactive: 1.03.

Turning to `COc1ccc(NC(=O)Nc2ccc3c(c2)C(=O)N([C@@H](C)CO)C[C@H](C)[C@H](CN(C)S(=O)(=O)c2ccc(C)cc2)OCCCC[C@H](C)O3)cc1`, the relative growth is inactive: 1.01. For `O=C(C[C@@H]1CC[C@@H]2[C@H](COC[C@@H](O)CN2S(=O)(=O)c2cccc(Cl)c2)O1)NC1Cc2ccccc2C1` the value was inactive: 0.985. The same measure for `Nc1cc(-c2ccncc2)c[nH]c1=O`: inactive: 1. With `COc1ccc(NC(=O)N(C)C[C@H]2OCc3ccccc3-c3c(n(C)c4ccccc34)C(=O)N([C@H](C)CO)C[C@H]2C)c(OC)c1`, the relative growth is inactive: 0.995. The same measure for `C[C@H](CO)N1C[C@H](C)[C@H](CN(C)C(=O)Nc2cccc3ccccc23)Oc2ccc(NS(=O)(=O)c3ccc(Cl)cc3)cc2C1=O`: inactive: 1.01. The same measure for `C[C@@H]1CCCCO[C@H](CN(C)S(=O)(=O)c2ccccc2)[C@H](C)CN([C@@H](C)CO)C(=O)c2cc(NC(=O)c3ccccc3)ccc2O1`: inactive: 1.01; for `C[C@H](O)[C@H](O)[C@H]1CNc2[nH]c(N)nc(=O)c2N1`: inactive: 1; for `COC(=O)[C@H](Cc1ccc(-n2cc(CCC(=O)NO)nn2)cc1)N1CC2=C[C@H]([C@@H](O)Cc3ccccc3)n3c(=O)n(C)c(=O)n3[C@@H]2[C@@H](C2CC2)O1`: inactive: 1. The same measure for `Fc1cccc(-c2csc(COc3ccccc3Cl)n2)c1`: inactive: 1.02; for `COCC(=O)Nc1ccc2c(c1)C(=O)N(C)C[C@@H](OC)[C@H](C)CN(C(=O)CN1CCOCC1)[C@H](C)CO2`: inactive: 1.01. Turning to `COc1ccc(S(=O)(=O)Nc2ccc3c(c2)CC(=O)N([C@H](C)CO)C[C@H](C)[C@H](CN(C)CC2CC2)O3)cc1`, the relative growth is inactive: 0.994.
